From PubChem BioAssay AID1508623 (National Center for Advancing Translational Sciences (NCATS), 2021)
Hit rate of the full screen: of about 48,000 compounds, about 450 (0.94%) were called active. About 19% were inconclusive and are not listed. The call rests on the fitted dose curve; in most records, active means well fitted inhibition curve with a large enough effect; inconclusive means small, poorly fitted or top-dose-only effect; inactive means no such curve, though single readings can be large or run the other way. Some of the results follow.

Test: Primary qHTS for Identification of Small Molecule Inhibitors of Huntingtin Promoter Activity; further: nearly all actives have a fitted effect of over 50% in size
Settings: HEK293 HTT promoter firefly luciferase reporter (activity 0% = vehicle and -100% = no light), 24 h; series mostly up to 57.5 µM; activity change, negative = inhibition: at the top concentration
In short: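 Firefly luciferase readout (Dual-Glo, 10 min RT) after 24 h, 37 °C compound exposure (final up to 57.5 uM) of HEK293 reporter cells cultured 24 h beforehand; PTC124 at 50 uM final as control inhibitor; activity scaled vehicle 0%, zero RLU -100%.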

SMILES	activity change, negative = inhibition
O=C(Nc1cccc2cccnc12)c1ccc(-c2cccc(Cl)c2)o1	inactive: 4.32%
CCCn1c2ccccc2c2cnn(CC(=O)NCCCN(CC)c3ccccc3)c(=O)c21	inactive: -26.3%
O=C(Nc1sc2c(c1C(=O)NCC1CCCO1)CCC2)c1cc(=O)c2cc(Cl)ccc2o1 (stereo unspecified)	inactive: 0%
Cc1ccc(CCNC(=O)c2ccc3c(c2)N(Cc2ccccc2F)C(=O)c2ccccc2S3=O)cc1 (stereo unspecified)	inactive: 2.92%
COc1cccc(NC(=O)CCCn2c(=O)c3cccn3c3cccnc32)c1	inactive: 17.8%
O=C1C(=O)N(C2CCNCC2)CCN1Cc1ccccc1	inactive: 0%
COc1ccc(-c2nc(CCNC(=O)c3ccccc3)cs2)cc1OC	inactive: -16.2%
Fc1ccc(-c2cc(-c3ccccc3)c3c(n2)-c2ccccc2OC3)cc1	inactive: -9.57%
Cc1cccc(C)c1NC(=O)CCCn1c(=O)c2cccn2c2ccccc21	inactive: -2.29%
CCOC(=O)c1c(S(=O)(=O)NCC(=O)Nc2ccc(C(C)=O)cc2)c(C)n(C)c1C	inactive: 2.67%
COc1ccc(NC(=O)CN2C(=O)CCc3cc(S(=O)(=O)N4CCOCC4)ccc32)c(OC)c1	inactive: -22.6%
CCOc1ccccc1NC(=O)Cn1c(=O)n(-c2ccccc2)c(=O)c2c1c1cc(C)ccc1n2C	inactive: -11.7%
CCCS(=O)c1ccc2nc(NC(=O)OC)[nH]c2c1 (stereo unspecified)	inactive
CCN(C(=O)CSc1nnc(-c2cc3occc3n2C)n1-c1ccccc1C)c1cccc(C)c1	inactive: -16%
COc1ccc(-c2cn3c(n2)sc2cc(C(=O)NCCCN4CCCCC4)ccc23)cc1	inactive: -22.1%
CCc1ccc(CNC(=O)CSc2cc(=O)n(CC)c3ccccc23)cc1	inactive: -20.3%
CCNC(=O)c1c(C)oc2ncn(C)c(=O)c12	inactive: -16.5%
Cc1nn(CCCC(=O)Nc2cc(C(F)(F)F)ccc2Cl)c(=O)c2c1sc1ccccc12	inactive: 3.93%
CCc1nn(CC(=O)N(CC)Cc2ccccc2)c(=O)c2cc3occc3n12	inactive: -24.7%
CCc1ccc(NS(=O)(=O)c2ccc3[nH]cc(C(=O)NCc4ccc(C)cc4)c(=O)c3c2)cc1	inactive: -22.2%
CCOc1ccc(-n2c(=O)c3c4c(sc3n(Cc3cccc(C)c3)c2=O)CCCC4)cc1	inactive: -5%

SMILES	activity change, negative = inhibition
Clc1ccc2nc(Nc3ccccc3Cl)nc(-c3ccccc3)c2c1	inactive: 0%
CC(=O)O[C@@H]1C(=O)O[C@@H]2[C@H]1OC(=O)[C@@H]2OC(C)=O	inactive: -10.2%
Cc1ccc(-c2cn3c(n2)sc2cc(C(=O)NC4CCCc5ccccc54)ccc23)cc1 (stereo unspecified)	inactive: 47.4%
CCOCCCNC(=O)C1CCN(c2cc(C)nc3c(-c4ccc(Cl)cc4)c(C)nn23)CC1	inactive: -7.14%
CCc1ccc(NCc2cc3cc4c(cc3n(CC(=O)Nc3ccccc3Cl)c2=O)OCO4)cc1	inactive: -35.6%
CCOc1ccccc1NC(=O)Nc1cc(C(=O)NCc2ccc(C)cc2)ccc1N1CCCC1	inactive: -31.7%
COc1ccc(OC)c(NC(=O)c2c(NCc3ccc(OC)c(OC)c3)sc3c2CCC3)c1	inactive: -7.43%
Cc1ccc(NC(=O)c2cc3c(-c4ccccc4)nn(-c4ccccc4)c3s2)cc1	inactive: 7.7%
O=C(Nc1ccc(Br)cc1F)C(NS(=O)(=O)c1cccc2nsnc12)c1ccccc1 (stereo unspecified)	inactive: -27%
COc1ccc(NC(=O)Cn2c(=O)n(CC(=O)NCCc3ccccc3)c(=O)c3ccccc32)cc1	inactive: 2.35%
O=C(Nc1cc(-c2nc3ccccc3o2)ccc1Cl)c1ccc(Br)o1	inactive: 25.4%
Cc1c(C(=O)NCc2ccccc2)sc2nc[nH]c(=O)c12	inactive: 12.8%
Cc1ccc(CCNc2nc3c(S(=O)(=O)c4ccccc4)nnn3c3ccsc23)cc1	inactive: -9.18%
COc1cc(-c2noc(-c3ccc(N(C)C)c([N+](=O)[O-])c3)n2)cc(OC)c1OC	inactive: -3.96%
Cc1ccccc1Cn1c2ccccc2c2cnn(CC(=O)NCCCc3ccccc3)c(=O)c21	inactive: 9.94%
O=C(Cn1c(-c2cccs2)cc2cc(F)ccc21)N1CCN(c2cccc(Cl)c2)CC1	inactive: -24.3%
CC(=O)Nc1ccc(S(=O)(=O)NC2(C(F)(F)F)NC(=O)N(c3ccccc3F)C2=O)cc1 (stereo unspecified)	inactive: -4.72%
CCC1CN(C(=O)Nc2cccc(OC)c2)c2ccccc2O1 (stereo unspecified)	inactive: -28.1%
COc1ccc2c(c1)c1c(c(=O)n(-c3ccc(F)c(Cl)c3)c(=O)n1CC(N)=O)n2C	inactive: -4.26%
COc1cccc2c1cc1c(=O)n(CC(=O)O)nc(C)n12	inactive: 8.65%
CCOc1ccc(Nc2sc(C(=O)c3ccc4c(c3)OCO4)c(N)c2S(=O)(=O)c2ccc(C)cc2)cc1	inactive: -27.4%

SMILES	activity change, negative = inhibition
COc1ccccc1CNC(=O)CSc1cc(=O)n(C)c2ccccc12	inactive: 9%
COc1ccc(-c2cc(C(F)(F)F)nc(NCc3ccc(Cl)cc3)n2)cc1	inactive: -19.3%
CC1CCCCN1S(=O)(=O)c1cc2c(=O)nc3ccccn3c2cc1Cl (stereo unspecified)	inactive: -2.23%
CCOc1ccc(C2C(C(=O)Nc3ccccc3OC)=C(C)Nc3c(C(=O)Nc4cccc(C)c4)cnn32)cc1 (stereo unspecified)	inactive: -8.9%
O=C1CC(c2nnc(Cc3cccc(Cl)c3)o2)CN1c1ccccc1 (stereo unspecified)	inactive: -26.4%
COc1cccc(-c2cc(C(=O)Nc3ccc(Br)c(C)c3)[nH]n2)c1	inactive: 3.71%
Cc1ccc2c(c1)cc1c(=O)n(Cc3ccc(Cl)cc3)nc(C)n12	inactive: 15.6%
COc1ccc(-n2c(=O)c3ccc(C(=O)NCc4ccc(C)cc4)cc3n(Cc3cccc(Cl)c3)c2=O)cc1	inactive: -16.9%
COc1ccc(CN(Cc2ccco2)C(=O)c2ccccc2F)cc1	inactive: -13.4%
CCOc1ccc(CNC(=O)C2CCN(c3nc4ccccc4nc3C(F)(F)F)CC2)cc1OC	inactive: -1.04%
CC1CCN(c2oc(-c3cccs3)nc2S(=O)(=O)c2ccccc2)CC1	inactive: -28.1%
CCOC(=O)c1cnc2c(ccc3ccccc32)c1Nc1cccc(Cl)c1	inactive: -11.6% [at 11.5 µM]
COc1ccc(CCNC(=O)c2cnc3sc(N4CCOCC4)nn3c2=O)cc1	inactive: -2.93%
Cc1nn(C)c2c1c(-c1ccccc1)cc(=O)n2Cc1ccc(F)cc1	inactive: -9.7%
COc1ccc(CNC(=O)c2cnc(N3CCCC3)nc2C)c(OC)c1	inactive: -16.1%
Cc1ccc(NC(=O)CCC(=O)N2Cc3ccccc3Oc3ncccc32)cc1Cl	inactive: -11.2%
COc1ccccc1CNC(=O)C(NS(=O)(=O)c1ccc2c(c1)CCN2C(C)=O)C(C)C (stereo unspecified)	inactive: -10%
COc1ccc(-c2nc3sc(CCNC(=O)Cc4ccccc4)c(C)n3n2)cc1	inactive: -10%
COc1ccc(C2=NS(=O)(=O)N(C)C(C(=O)NC(C)c3ccccc3)=C2)cc1 (stereo unspecified)	inactive: -23.8%
